Results published in article PMC4336329 (PLoS ONE, 2015).
Among all 310,000 compounds or so, about 2,200 (0.71%) showed an effect of 50% or more. Effects have a minus sign here. The list shows a part of the results.

biological target: human ether-à-go-go-related gene (hERG) potassium channel (human, UniProt Q12809); assay: primary screen, population patch clamp on CHO cells stably expressing hERG
Sequence (Q12809 whole entry, looked up): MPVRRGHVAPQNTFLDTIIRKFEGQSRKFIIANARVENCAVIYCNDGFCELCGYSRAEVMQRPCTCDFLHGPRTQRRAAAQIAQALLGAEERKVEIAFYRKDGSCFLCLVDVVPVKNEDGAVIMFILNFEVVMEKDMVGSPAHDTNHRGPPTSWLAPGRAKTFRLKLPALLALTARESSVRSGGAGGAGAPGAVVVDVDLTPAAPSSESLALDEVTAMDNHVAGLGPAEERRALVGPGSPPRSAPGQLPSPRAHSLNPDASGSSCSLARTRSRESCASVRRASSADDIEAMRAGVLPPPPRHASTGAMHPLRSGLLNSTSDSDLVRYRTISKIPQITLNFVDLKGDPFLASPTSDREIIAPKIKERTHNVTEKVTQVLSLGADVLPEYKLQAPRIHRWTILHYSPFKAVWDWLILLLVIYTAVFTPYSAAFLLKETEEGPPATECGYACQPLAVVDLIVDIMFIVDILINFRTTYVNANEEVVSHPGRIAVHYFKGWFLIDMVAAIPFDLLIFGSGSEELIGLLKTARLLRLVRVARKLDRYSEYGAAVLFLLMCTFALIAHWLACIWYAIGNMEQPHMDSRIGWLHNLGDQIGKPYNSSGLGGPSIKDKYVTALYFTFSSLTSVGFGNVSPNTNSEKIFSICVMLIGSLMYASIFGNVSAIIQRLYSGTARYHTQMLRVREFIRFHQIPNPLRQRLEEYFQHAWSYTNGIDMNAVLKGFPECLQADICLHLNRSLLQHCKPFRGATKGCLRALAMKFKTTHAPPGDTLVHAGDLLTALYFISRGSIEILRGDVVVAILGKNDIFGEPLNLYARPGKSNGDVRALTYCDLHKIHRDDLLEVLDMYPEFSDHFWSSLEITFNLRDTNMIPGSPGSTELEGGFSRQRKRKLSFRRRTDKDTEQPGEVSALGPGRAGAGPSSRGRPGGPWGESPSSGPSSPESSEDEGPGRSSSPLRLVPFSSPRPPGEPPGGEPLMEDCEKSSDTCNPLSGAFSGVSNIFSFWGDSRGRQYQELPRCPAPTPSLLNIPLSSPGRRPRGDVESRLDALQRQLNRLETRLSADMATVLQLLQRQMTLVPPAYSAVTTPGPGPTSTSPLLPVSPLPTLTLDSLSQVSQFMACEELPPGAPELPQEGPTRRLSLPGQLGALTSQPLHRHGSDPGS

| Structure (SMILES) | hERG current change (%, negative = inhibition) at 1uM |
| --- | --- |
| O=c1ccc2cc(S(=O)(=O)N3CCN(c4cc(Cl)ccc4Cl)CC3)ccc2o1 | 5.49% |
| CCn1c(-c2cc(Cl)ccc2OC)n[nH]c1=S | -5.42% |
| CCCOc1ccc(-c2c(C(=O)N/N=C/c3ccco3)nnn2-c2nonc2N)cc1 | 17.3% |
| CC(=O)N1CCN(CCN=CC2=C(O)CC(c3ccc(Cl)cc3)CC2=O)CC1 (centres unmarked) | -4.18% |
| CCO.Cc1nn(-c2ccccc2)c(Cl)c1C1C(C#N)=C(N)Oc2c1c(C)nn2-c1ccccc1 (centres unmarked) | 10.7% |
| Cn1c(=O)[nH]c(=O)c2c1nc(Br)n2CCC(=O)c1ccccc1 | 16.6% |
| Cc1ccc(-n2nc3c(c2NC(=O)c2cccs2)CS(=O)(=O)C3)c(C)c1 | 8.74% |
| N#Cc1nc(-c2ccccc2F)oc1NCc1cccc2c1OCO2 | -10.9% |
| Cc1ccc(CN2CCN(/N=C/c3cccnc3)CC2)cc1 | -1.07% |
| O=S(=O)(Nc1ccccc1O)c1ccc(Cl)nc1 | 11.1% |
| CC(CN1CCC(O)CC1)c1ccccc1 (centres unmarked) | 14.2% |
| COCCCNC(=O)CN(c1cc(Cl)ccc1OC)S(C)(=O)=O | 16% |
| CC1CCCCN1C(=O)COC(=O)c1cc(-c2cccs2)nn1-c1ccccc1 (centres unmarked) | 10.4% |
| O=C(CSc1nnc(C2COc3ccccc3O2)o1)N1CCCC1 (centres unmarked) | 12.4% |
| COc1cc(C(=O)OCCCOC(=O)c2cc(OC)c(OC)c(OC)c2)cc(OC)c1OC | 8.68% |
| O=C(CCNS(=O)(=O)c1ccc(Cl)cc1)NCc1cccnc1 | 15.7% |
| CC(NC(=O)C1CCCN(C(=O)N(C)C)C1)c1ccccc1 (centres unmarked) | 6.22% |
| N#Cc1ccc(/C=N/NC(=O)c2cccc(S(=O)(=O)N3CCOCC3)c2)cc1 | 10.1% |
| O=C(CN1CCN(Cc2ccccc2)CC1)Nc1nc2ccccc2s1 | -24.1% |
| C=CCNc1ncnc2ccccc12 | 18.2% |
| Cc1ccc2c(C)cc[n+](CCCS(=O)(=O)[O-])c2c1 | 6.56% |
| CC(C)c1ccc(-c2c(C#N)c(N)nc3c2CCCCC3)cc1 | 10.3% |
| CCn1c(SCc2nc(N)nc(N3CCCCC3)n2)nc2c1c(=O)n(C)c(=O)n2C | 0.506% |

| Structure (SMILES) | hERG current change (%, negative = inhibition) at 1uM |
| --- | --- |
| CCc1ccc(OC(=O)c2ccn(CC)n2)cc1 | 6.53% |
| Cc1oc2cc3oc(=O)c(CC(=O)NCCCC(=O)O)c(C)c3cc2c1C | 23.6% |
| Cc1cccc(C)c1N(CC(=O)NCc1ccc(F)cc1)C(=O)c1csnn1 | 11.3% |
| CN(Cc1cccnc1)C(=O)c1ccc2nc(Cc3ccccc3F)oc2c1 | 10.1% |
| Cc1nc2sc(C(c3ccc(Cl)cc3)N3CCOCC3)c(O)n2n1 (centres unmarked) | 0.0309% |
| CCn1c(C)nnc1SCC(=O)Nc1ccc2c(c1)OCCO2 | 5.21% |
| CC(c1ccccc1)N1CCn2c(nc3cc(NS(C)(=O)=O)ccc32)C1 (centres unmarked) | 4.9% |
| Cc1ccc(C)c(-c2nnc(NC(=O)Cc3ccc(F)cc3)o2)c1 | 16.8% |
| Cn1c(=O)cc(Nc2ccccc2)[nH]c1=O | 30.1% |
| C=C(Cl)COc1cc(C)cc2oc(=O)cc(CC)c12 | 11.6% |
| COCC(=O)N1CCC(Oc2ccc(C(=O)NCc3cnc(C)cn3)cc2)CC1 | 13% |
| COc1ccc(NS(=O)(=O)c2cccc(C(=O)Nc3ccccc3C(=O)O)c2)cc1 | 12.1% |
| COCCCNC(=S)NNC(=O)c1cc(Cl)c(O)c(Cl)c1 | 11.3% |
| CCc1ccc(CNCCNCC(C)O)cc1.Cl (centres unmarked) | 5.43% |
| Nc1nc(SCC(=O)Nc2ccccc2)[nH]c(=O)c1-c1ccccc1 | 7.28% |
| COc1ccc(CCN2CN(S(=O)(=O)c3ccc(OC)cc3)c3nc4ccccc4nc32)cc1 | 12.3% |
| CCc1ccc(NC(=O)CSc2nc3ccccc3c(=O)n2CCCC(=O)NCCCN2CCOCC2)cc1 | -26.4% |
| CC(C)Oc1ccc(CN=C(N)N=C(N)N)cc1Cl | 12.8% |
| S=C(NCCc1ccccc1)N/N=C/c1cccs1 | 12.5% |
| Nn1c(SCc2nc3ccccc3[nH]2)nnc1-c1ccccc1 | 14% |
| Cc1ccc(Cl)cc1NC(=S)N(CCCN1CCOCC1)Cc1ccco1 | -3.45% |
| CCOC(=O)Cc1c(C)nc2c(-c3ccccc3OC)c(C)nn2c1C | -2.56% |
| CCN(C(=O)COC(=O)c1cccnc1SC)C1CCS(=O)(=O)C1 (centres unmarked) | 13% |

| Structure (SMILES) | hERG current change (%, negative = inhibition) at 1uM |
| --- | --- |
| C#Cc1cccc(NC(=O)CSc2nnc(-c3ccc(C(F)(F)F)cn3)o2)c1 | 9.17% |
| C/C(=N\NC(=O)c1ccc(C)cc1)c1c(C)[nH]n(-c2ccccc2)c1=O | 12.8% |
| O=C(Cn1c(C(=O)NCCCN2CCOCC2)cc2sccc21)c1ccccc1 | 12% |
| CC1CN(C(=O)COC(=O)c2nn(-c3ccccc3)c(=O)c3ccccc23)CC(C)O1 (centres unmarked) | 16.8% |
| COc1ccc(CN2C3CCCC2CC(NC(=O)Nc2cccc(C)c2)C3)cc1 (centres unmarked) | -71.5% |
| COC(=O)Nc1ccc(S(=O)(=O)N2CCCC(C(=O)NC3CCS(=O)(=O)C3)C2)cc1 (centres unmarked) | 7.53% |
| O=C(/C=C/c1ccccc1[N+](=O)[O-])c1ccccc1Br | 11.1% |
| O=C(NCCc1ccccc1)c1ccc(-n2cnnn2)cc1 | 4.61% |
| COc1ccccc1OCCC(=O)Nc1cccc(S(=O)(=O)N2CCCCC2)c1 | 13.7% |
| COc1cc(C(C(=O)NC(C)(C)C)N(Cc2ccc3c(c2)OCO3)C(=O)c2cnccn2)cc(OC)c1OC (centres unmarked) | 10.5% |
| CCC(=Nc1ccc(OC)cc1OC)c1c(O)[nH]c(=O)[nH]c1=O | 14.4% |
| Cc1sc(NC(=O)CCCC(=O)O)c(C#N)c1C | 3.88% |
| CS(=O)(=O)N(CC(O)Cn1c2ccccc2c2ccccc21)c1ccccc1 (centres unmarked) | 10.5% |
| CNC(=S)NC1CC2CCCC(C1)N2Cc1ccccc1OC (centres unmarked) | 7.16% |
| O=C(Cn1c(-c2cncs2)nc2ccccc21)NC1CCCC1 | -1.71% |
| COCCn1c(C)c(C(=O)O)sc1=S | 5.64% |
| CON(C)S(=O)(=O)c1ccc2c(c1)NC(=O)C1CCCN21 (centres unmarked) | 3.24% |
| CC1CCCN(C(=O)COC(=O)Cc2c(F)cccc2Cl)C1 (centres unmarked) | 6.83% |
| O=C1N(c2ccccc2)C2CS(=O)(=O)CC2N1c1ccc(Br)cc1 (centres unmarked) | -11.6% |
| O=C(Nc1ccccc1)c1ccc(NCCN2C(=O)CCC2=O)c([N+](=O)[O-])c1 | 12.7% |
| CNC(=O)Oc1ccc2c(c1)[C@]1(C)CCN(C)C1N2C.O=S(=O)(O)O (some centres unmarked) | 8.03% |
| CC12CC(O)C3c4ccc(O)cc4CCC3C1CCC2=O (centres unmarked) | 17.5% |
| Cc1ccc(C(C(=O)NC2CCCC2)N(Cc2ccco2)C(=O)CCC(=O)Nc2cc(C)on2)cc1 (centres unmarked) | 14.8% |

| Structure (SMILES) | hERG current change (%, negative = inhibition) at 1uM |
| --- | --- |
| CC(=O)C1=C(c2ccccc2)NC(=O)NC1c1ccc2c(c1)OCO2.CC(=O)O (centres unmarked) | 18.4% |
| Cc1ccccc1/C=N\NC(=O)c1csnn1 | 5.9% |
| Cc1ccc(NC(=O)CSc2nnc([C@@H](N)Cc3c[nH]c4ccccc34)o2)c(C)c1.Cl | 0.382% |
| COC(=O)CSc1nc2ccc(N)cc2s1 | 13.1% |
| Cc1ccccc1OCCC(=O)Nc1cccc(S(=O)(=O)Nc2ccccc2Cl)c1 | 6.96% |
| CCCCN(CC)c1nc(N)c2c(N)nc(OCC)cc2c1C#N | 22.9% |
| O=C(C1CC1)N1CCc2cc(Br)cc(S(=O)(=O)NCC3COc4ccccc4O3)c21 (centres unmarked) | 7.21% |
| CCn1c(C(=O)O)c(CC(=O)Nc2ccc(Br)cc2C)c2ccccc21 | 9.9% |
| CCCNC(=O)COc1coc(CN2CCN(c3ccc(F)cc3)CC2)cc1=O | 16.8% |
| COC(=O)C1=C(c2ccccc2OCc2ccccc2)C[C@@H]2CC[C@H]1N2C(=O)NCCCOC(C)C | 10.6% |
| O=C1N2CN(C(c3ccccc3)c3ccccc3)CN=C2SC1(CO)CO | 5.23% |
| CC(C)CNC(=S)N(CCN(C)C)Cc1cc2cc3c(cc2[nH]c1=O)OCO3 | 16.6% |
| COC(=O)c1ccc(-n2nnnc2SCc2nn[nH]n2)cc1 | 14.3% |
| CCOC(=O)N1CCN(C(=O)C(CC)c2ccccc2)CC1 (centres unmarked) | 14.6% |
| C=CCNC(=S)/C(=C(/[O-])c1ccc([N+](=O)[O-])cc1)[n+]1ccccc1 | 9.06% |
| O=C(O)C(=O)O.O=S(=O)(c1ccc(Cl)cc1)N1CCN(Cc2ccncc2)CC1 | -11.1% |
| OCCOc1ccccc1 | 14.6% |
| CN1C(=O)N(C)C(NC(=O)Nc2ccccc2)C1NC(=O)Nc1ccccc1 (centres unmarked) | 9.11% |
| Cc1cc(C(=O)N2CCOCC2)ccc1[N+](=O)[O-] | 3.84% |
| Cc1ccc(NC(=O)C2CCN(S(=O)(=O)c3ccc4c(c3)CCCC(=O)N4)CC2)cc1N(C)C | 5.6% |
